# Measured values: PMC9144445, “Substrate-Based Design of Cytosolic Nucleotidase IIIB Inhibitors and Structural Insights into Inhibition Mechanism” (Pharmaceuticals, 2022)
# Key:
# human cN-IIIB [1] = biological target: T1, human cN-IIIB (Homo sapiens, UniProt Q969T7); assay: Hydrolysis assay: susceptibility to hydrolysis by cN-IIIB (MGP assay); assay type: biochemical; parameters: expressed as a construct of full-length protein (residues 1–300); His6 (N, cleaved yes); ubiquitin-like Smt protein (SUMO) (N, cleaved yes); made in house; details: cN-IIIB 80 nM, 45 min; for Susceptibility to hydrolysis (%): MGP assay
# T1 sequence (Q969T7 1-300): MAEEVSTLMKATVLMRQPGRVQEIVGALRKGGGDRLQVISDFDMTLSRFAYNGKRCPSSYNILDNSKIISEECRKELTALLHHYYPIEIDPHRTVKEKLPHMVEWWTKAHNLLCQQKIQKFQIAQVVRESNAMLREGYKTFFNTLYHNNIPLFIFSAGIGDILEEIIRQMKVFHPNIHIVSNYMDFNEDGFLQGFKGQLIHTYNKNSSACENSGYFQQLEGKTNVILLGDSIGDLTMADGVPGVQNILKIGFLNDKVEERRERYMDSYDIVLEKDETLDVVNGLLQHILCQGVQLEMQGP
# human cN-IIIB [2] = biological target: T1, human cN-IIIB; assay: IC50 determination for cN-IIIB (MGP assay)
# human cN-IIIB [3] = biological target: T1, human cN-IIIB
# [4] = library I, compound 100 μM, relative to m7GMP set to 100%
Structure (SMILES),Susceptibility to hydrolysis (%) (human cN-IIIB [1]; [4]),IC50 (human cN-IIIB [2]) [µM],other results
"C[n+]1cn([C@@H]2O[C@H](COP(=O)([O-])O)[C@@H](O)[C@H]2O)c2nc(N)[nH]c(=O)c21 [m7GMP, 7-mehtylguanosine monophosphate, reference compound]",100.0,,
C[n+]1cn([C@@H]2O[C@H](COP(=O)([O-])O)[C@@H](O)[C@H]2N)c2nc(N)[nH]c(=O)c21 [Compound S27],57.8,,
C[n+]1cn([C@@H]2O[C@H](Cn3cc(CCP(=O)([O-])O)nn3)[C@@H](O)[C@H]2O)c2nc(N)[nH]c(=O)c21 [Compound S16],0.0,,
C#CCCP(=O)(O)OP(=O)([O-])OC[C@H]1O[C@@H](n2c[n+](C)c3c(=O)[nH]c(N)nc32)[C@H](O)[C@@H]1O [Compound S8],0.0,,
C#CP(=O)(O)OP(=O)([O-])OC[C@H]1O[C@@H](n2c[n+](C)c3c(=O)[nH]c(N)nc32)[C@H](O)[C@@H]1O [Compound S10],0.0,,
"C[n+]1cn(Cc2cn(CP(=O)([O-])O)nn2)c2nc(N)[nH]c(=O)c21 [Compound 4b, 7-methylguanosine-9-CH2-Triazol-CH2-p]",,> 500,"Susceptibility to hydrolysis (%) (human cN-IIIB [1]; library II, compound 100 µM): 0.0%"
"C[n+]1cn([C@@H]2O[C@H](CO)[C@@H](O)[C@H]2O)c2nc(N)[nH]c(=O)c21 [m7Guo, 7-methylguanosine, reference compound]",0.0,,
C[n+]1cn([C@@H]2O[C@H](COP(=O)(O)O)[C@@H](OC(=O)NCCC(=O)[O-])[C@H]2O)c2nc(N)[nH]c(=O)c21 [Compound S31],20.0,,
Nc1nc2c(c(=O)[nH]1)[n+](Cc1ccc(F)c(F)c1)cn2C1OC(COP(=O)([O-])O)C(O)C1O (stereo not drawn) [Compound 5d],,2.5 ± 0.2,
C#CCOP(=O)(O)OP(=O)([O-])OC[C@H]1O[C@@H](n2c[n+](C)c3c(=O)[nH]c(N)nc32)[C@H](O)[C@@H]1O [Compound S11],0.0,,
C[n+]1cn([C@@H]2O[C@H](COP(=O)([O-])O)[C@@H](O)[C@H]2NC(=O)CCCC[C@@H]2SC[C@@H]3NC(=O)N[C@@H]32)c2nc(N)[nH]c(=O)c21 [Compound S32],0.0,,
CO[C@@H]1[C@H](O)[C@@H](COP(=O)([O-])O)O[C@H]1n1c[n+](C)c2c(=O)[nH]c(N)nc21 [Compound S26],60.0,,
Nc1nc2c(c(=O)[nH]1)[n+](Cc1ccc(F)cc1F)cn2[C@@H]1O[C@H](COP(=O)([O-])O)[C@@H](O)[C@H]1O [Compound 5e],,27.6 ± 2.6,"Susceptibility to hydrolysis (%) (human cN-IIIB [1]; library II, compound 100 µM): 0.0%"
C[n+]1cn([C@@H]2O[C@H](COP(=O)([O-])OP(=O)(O)NCCN=[N+]=[N-])[C@@H](O)[C@H]2O)c2nc(N)[nH]c(=O)c21 [Compound S7],0.0,,
Nc1nc2c(c(=O)[nH]1)[n+](Cc1ccccc1)cn2[C@@H]1O[C@H](COP(=O)([O-])O)[C@@H](O)[C@H]1O [Compound 5],0.0,10 ± 1,
C#CCn1c(N)nc2c(ncn2[C@@H]2O[C@H](COP(=O)(O)O)[C@@H](O)[C@H]2O)c1=O [Compound S23],73.3,,
Cc1ccc(C[n+]2cn([C@@H]3O[C@H](COP(=O)([O-])O)[C@@H](O)[C@H]3O)c3nc(N)[nH]c(=O)c32)cc1 [Compound 5b],,14.3 ± 1.8,"Susceptibility to hydrolysis (%) (human cN-IIIB [1]; library II, compound 100 µM): 0.0%"
C#CCNP(=O)(O)OP(=O)([O-])OC[C@H]1O[C@@H](n2c[n+](C)c3c(=O)[nH]c(N)nc32)[C@H](O)[C@@H]1O [Compound S5],0.0,,
C[n+]1cn([C@@H]2O[C@H](COP(=O)([O-])O)[C@H]3OC(C)(C)O[C@H]32)c2nc(N)[nH]c(=O)c21 [Compound S28],33.3,,
"Cn1c[n+]([C@@H]2O[C@H](COP(=O)(O)OP(=O)([O-])OP(=O)(O)OC[C@H]3O[C@@H](n4cnc5c(=O)[nH]c(N)nc54)[C@H](O)[C@@H]3O)[C@@H](O)[C@H]2O)c2nc(N)[nH]c(=O)c21 [m7GpppG, reference compound]",0.0,,

Structure (SMILES),Susceptibility to hydrolysis (%) (human cN-IIIB [1]; [4]),IC50 (human cN-IIIB [2]) [µM],other results
Cc1cc(C)cc(C[n+]2cn([C@@H]3O[C@H](COP(=O)([O-])O)[C@@H](O)[C@H]3O)c3nc(N)[nH]c(=O)c32)c1 [Compound 5c],,13.9 ± 2,"Susceptibility to hydrolysis (%) (human cN-IIIB [1]; library II, compound 100 µM): 0.0%"
C#CC[n+]1cn([C@@H]2O[C@H](COP(=O)([O-])O)[C@@H](O)[C@H]2O)c2nc(N)[nH]c(=O)c21 [Compound 7],0.0,,"Inhibition of cN-IIIB activity, first library (in words) (human cN-IIIB [3]; m7GMP 100 μM + inhibitor 100 μM, cN-IIIB 80 nM, 45 min): most potent inhibitory effect; Inhibition (human cN-IIIB [3]; relative percentage of inhibition of cN-IIIB, first-library hits (Figure 2A)): 62.3%; Susceptibility to hydrolysis by cN-IIIB (in words) (human cN-IIIB [1]; compound 100 μM): resistant to hydrolysis"
C#CCNP(=O)(O)OC[C@H]1O[C@@H](n2c[n+](C)c3c(=O)[nH]c(N)nc32)[C@H](O)[C@@H]1O [Compound S4],0.0,,
"Cn1c[n+]([C@@H]2O[C@H](COP(=O)([O-])OP(=O)(O)OP(=O)(O)O)[C@@H](O)[C@H]2O)c2nc(N)[nH]c(=O)c21 [m7GTP, reference compound]",0.0,,
"Cc1cccc(C[n+]2cn([C@@H]3O[C@H](Cn4cc(P(=O)([O-])O)nn4)[C@@H](O)[C@H]3O)c3nc(N)[nH]c(=O)c32)c1 [Compound 8e, 7-(3-Methylbenzyl)guanosine-Triazol-p]",,144 ± 23,"Susceptibility to hydrolysis (%) (human cN-IIIB [1]; library II, compound 100 µM): 0.0%"
"C[n+]1cn([C@@H]2O[C@H](Cn3nncc3P(=O)([O-])O)[C@@H](O)[C@H]2O)c2nc(N)[nH]c(=O)c21 [Compound 4a, 7-Methylguanosine-triazol-p (1,5 Isomer)]",,35 ± 15,"Susceptibility to hydrolysis (%) (human cN-IIIB [1]; library II, compound 100 µM): 0.0%; Potency towards cN-IIIB relative to compound 4 (human cN-IIIB [2]; comparison of IC50 values): approximately three-fold more efficiently"
"Nc1nc2c(c(=O)[nH]1)[n+](Cc1ccccc1)cn2[C@@H]1O[C@H](Cn2cc(P(=O)([O-])O)nn2)[C@@H](O)[C@H]1O [Compound 8d, 7-Benzylguanosine-Triazol-p]",,89 ± 27,"Susceptibility to hydrolysis (%) (human cN-IIIB [1]; library II, compound 100 µM): 0.0%"
C#CCP(=O)(O)OP(=O)([O-])OC[C@H]1O[C@@H](n2c[n+](C)c3c(=O)[nH]c(N)nc32)[C@H](O)[C@@H]1O [Compound S9],0.0,,
C[n+]1cn([C@@H]2O[C@H](Cn3cc(COP(=O)([O-])O)nn3)[C@@H](O)[C@H]2O)c2nc(N)[nH]c(=O)c21 [Compound S17],122.2,,
CO[C@@H]1[C@H](O)[C@@H](COP(=O)(O)O)O[C@H]1n1cnc2c(=O)[nH]c(N)nc21 [Compound S25],0.0,,
"Nc1nc2c(c(=O)[nH]1)[n+](Cc1ccccc1)cn2[C@@H]1O[C@H](CO[PH](=O)[O-])[C@@H](O)[C@H]1O [Compound 8c, 7-benzylguanosine 5’-H-phosphonate]",,> 500,"Susceptibility to hydrolysis (%) (human cN-IIIB [1]; library II, compound 100 µM): 0.0%"
"Cn1c[n+]([C@@H]2O[C@H](COP(=O)(O)OP(=O)([O-])O)[C@@H](O)[C@H]2O)c2nc(N)[nH]c(=O)c21 [m7GDP, reference compound]",97.8,,
C[n+]1cn([C@@H]2O[C@H](Cn3cc(CP(=O)([O-])O)nn3)[C@@H](O)[C@H]2O)c2nc(N)[nH]c(=O)c21 [Compound S15],0.0,,
"Nc1nc2c(c(=O)[nH]1)[n+](Cc1ccc(C(F)(F)F)cc1)cn2[C@@H]1O[C@H](COP(=O)([O-])O)[C@@H](O)[C@H]1O [Compound 5g, 7-(4-Trifluoromethylbenzyl)guanosine 5’-Monophosphate]",,7.3 ± 0.9,"Susceptibility to hydrolysis (%) (human cN-IIIB [1]; library II, compound 100 µM): 0.0%"
C[n+]1cn([C@@H]2O[C@H](COP(N)(=O)[S-])[C@@H](O)[C@H]2O)c2nc(N)[nH]c(=O)c21 (stereo partly drawn) [Compound S12],0.0,,
Cc1cccc(C[n+]2cn([C@@H]3O[C@H](COP(=O)([O-])O)[C@@H](O)[C@H]3O)c3nc(N)[nH]c(=O)c32)c1 [Compound 5a],,2.3 ± 0.3,
Nc1nc2c(c(=O)[nH]1)[n+](Cc1cc(F)c(F)c(F)c1)cn2[C@@H]1O[C@H](COP(=O)([O-])O)[C@@H](O)[C@H]1O [Compound 5f],,12.3 ± 2.6,"Susceptibility to hydrolysis (%) (human cN-IIIB [1]; library II, compound 100 µM): 0.0%"
C[n+]1cn([C@@H]2O[C@H](COP(N)(=O)[S-])[C@@H](O)[C@H]2O)c2nc(N)[nH]c(=O)c21 (stereo partly drawn) [Compound S13],0.0,,
C[n+]1cn([C@@H]2O[C@H](COP(=O)([O-])NCCN=[N+]=[N-])[C@@H](O)[C@H]2O)c2nc(N)[nH]c(=O)c21 [Compound S6],0.0,,
